From PMC4336329 (PLoS ONE, 2015)
Screen size: about 310,000 compounds; about 14,000 (4.5%) showed an effect of 50% or more. Effects have a minus sign here. This is one part of the list.

target: human ether-à-go-go-related gene (hERG) potassium channel (human, UniProt Q12809); experiment: primary screen, population patch clamp on CHO cells stably expressing hERG
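Note: peak tail current of the secondary pulse compared with the same well before compound.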

human ether-à-go-go-related gene (hERG) potassium channel, sequence (Q12809 whole entry, looked up): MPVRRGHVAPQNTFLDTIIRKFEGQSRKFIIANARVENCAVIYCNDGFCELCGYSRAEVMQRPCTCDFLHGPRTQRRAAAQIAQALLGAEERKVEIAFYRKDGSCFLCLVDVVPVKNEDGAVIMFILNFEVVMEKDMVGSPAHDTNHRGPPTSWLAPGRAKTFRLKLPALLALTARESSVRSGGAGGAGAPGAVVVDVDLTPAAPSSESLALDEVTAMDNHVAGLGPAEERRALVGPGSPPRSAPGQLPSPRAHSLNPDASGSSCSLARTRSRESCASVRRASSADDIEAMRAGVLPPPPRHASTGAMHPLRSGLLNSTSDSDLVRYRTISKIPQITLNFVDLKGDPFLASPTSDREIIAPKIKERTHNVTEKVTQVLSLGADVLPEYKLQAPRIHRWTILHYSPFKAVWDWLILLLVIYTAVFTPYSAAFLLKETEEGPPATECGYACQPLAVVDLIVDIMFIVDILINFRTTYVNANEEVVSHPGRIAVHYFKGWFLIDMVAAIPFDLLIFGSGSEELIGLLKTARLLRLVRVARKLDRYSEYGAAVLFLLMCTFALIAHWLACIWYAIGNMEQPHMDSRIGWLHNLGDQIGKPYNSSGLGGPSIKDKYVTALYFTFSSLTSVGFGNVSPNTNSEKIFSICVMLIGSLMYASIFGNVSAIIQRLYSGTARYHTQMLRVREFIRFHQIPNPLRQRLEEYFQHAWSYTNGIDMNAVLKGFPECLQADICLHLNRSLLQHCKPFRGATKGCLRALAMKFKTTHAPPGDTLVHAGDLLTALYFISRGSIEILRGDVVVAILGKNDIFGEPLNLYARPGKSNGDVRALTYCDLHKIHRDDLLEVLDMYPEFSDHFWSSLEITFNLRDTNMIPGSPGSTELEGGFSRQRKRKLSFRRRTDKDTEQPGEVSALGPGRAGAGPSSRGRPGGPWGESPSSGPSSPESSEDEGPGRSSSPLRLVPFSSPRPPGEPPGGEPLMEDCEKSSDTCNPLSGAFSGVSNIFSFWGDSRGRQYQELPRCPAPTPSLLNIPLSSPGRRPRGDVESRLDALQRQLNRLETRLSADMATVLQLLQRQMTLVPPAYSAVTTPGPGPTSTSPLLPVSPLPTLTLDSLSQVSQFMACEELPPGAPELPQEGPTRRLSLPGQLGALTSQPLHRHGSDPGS

SMILES	hERG current change (%, negative = inhibition) at 10uM [%]
CCOc1cc(C(=O)NCC(C)CN(C)C)cc(OCC)c1OCC (stereo not shown)	14.9
CCOC(=O)C1CCCN(C(=O)C2CCN(S(=O)(=O)c3cccs3)CC2)C1 (stereo not shown)	-18.7
COc1cccc(NS(=O)(=O)c2ccc3c(c2)CCN3C(C)=O)c1	-8.93
CCOc1ccc(N2C(=O)CC(N3CCN(c4ccc(Cl)cc4)CC3)C2=O)cc1 (stereo not shown)	18.5
CSc1ncccc1C(=O)Nc1ccncc1	16
CCC(=O)Nc1ccc(S(=O)(=O)N2CCc3ccccc32)cc1	-6.96
Cc1cccc(C(=O)NNC(=O)c2ccccc2Br)c1	3.08
Cc1cc(/C=C2\C(=O)NC(=O)N(c3cccc(F)c3)C2=O)c(C)n1-c1cc(C(=O)O)cc(C(=O)O)c1	21.1
CCOc1ccc(C(=O)NCC(=O)Nc2cc(C)ccn2)cc1OCC	-8.21
Cc1nnc(NC(=O)c2cc3n(n2)C(C(F)(F)F)CC(C2CC2)N3)s1 (stereo not shown)	18.9
CC1(c2ccc(Cl)cc2)NC(=O)N(CC(=O)NCc2cccs2)C1=O (stereo not shown)	-4.38
CCCn1cnc2sc(CC)cc2c1=O	14.6
CN1C(=O)c2ccccc2C(O)c2ccccc21 (stereo not shown)	8.44
CCOCCCNC(=O)C(C)NS(=O)(=O)c1ccc(C)cc1 (stereo not shown)	4.29
CCOc1ccccc1/C=N/Nc1cc(C)nc2ccc(C)cc12	8.9
CCOc1ccc2nc(NC(=O)CSc3ccccc3)sc2c1	3.44
CCn1c(CC(=O)Nc2ccc(C)cc2)nnc1SCC(=O)Nc1nc(C)cs1	13.9
CCN(CC)CCn1c(=O)n(-c2ccc(Cl)cc2)c(=O)c2c3c(sc21)CN(C)CC3	-18.4
COc1ccc(CC(=O)NC(C)c2nnc(SCC(=O)c3ccc(OC)cc3)n2C)cc1 (stereo not shown)	-3.19
Cc1nn(Cc2ccccc2)c(C)c1C(=O)N1CCN(CC(=O)Nc2ccccc2Cl)CC1	-50.3
Cc1cc(C)cc(OCC(=O)NNC(=O)CCC(=O)NCc2ccccc2)c1	7.35
NC(=S)Nc1cc(Cl)cc(Cl)c1	17.1
Cc1ccc(C(=O)NC(=S)Nc2ccc(-c3ccc(CO)o3)cc2)cc1	15.3

SMILES	hERG current change (%, negative = inhibition) at 10uM [%]
O=C(NC1CCCC1)c1ccc(COCC(F)(F)F)o1	8.1
O=C(c1ccc(F)cc1Cl)N1CCC2(CC1)OCCO2	19.7
Cc1nc(CN2CCOCC2)cc(=O)[nH]1	-10.5
CC(C)NC(=O)C1CCN(C2CCN(Cc3nc4ccccc4s3)CC2)CC1	-65.2
Cc1ccc(Nc2cc(C)c(O)c(C)c2)cc1	0.616
Cc1ccc(C(=O)CN(CCC(=O)O)C(=O)c2ccncc2)cc1	14.4
COC(=O)c1cccc(NC(=O)NC(=O)c2ccccc2Cl)c1	47.2
Cl.Cn1ccc2cc3c(cc21)CCN3C(=O)Nc1cccnc1.O	-1.83
O=C(Nc1ccccc1N1CCCC1)c1cccc(-c2cc3ccccc3oc2=O)c1	3.55
Cc1ccccc1CC(=O)N1CCCc2ccccc21	9.93
Cc1cc(Cl)ccc1OCC(=O)NCCOC(=O)Nc1sc(=S)n(C)c1C	3.5
COc1cc2c(cc1NC(=O)CSCC(=O)O)oc1ccccc12	14.8
O=C(CSc1nnc(Nc2ccccc2)s1)NCCN1C(=O)CSC1=O	15.6
CCn1nc(C(=O)OCc2cccc(S(=O)(=O)N(C)C)c2)c2ccccc2c1=O	-35.1
Cc1ccc2nc(/C=C/c3cccc(F)c3)ccc2c1	28.1
COc1ccc(N(C)S(=O)(=O)c2cccc(C(=O)NCc3ccc(C)cc3)c2)cc1	-16.5
CNC(=O)c1[nH]cnc1C(=O)N[C@@H](CC(C)C)C(=O)OCc1ccccc1	-58.2
CC(/C=N/NC(=O)c1cccs1)=C\c1ccccc1	5.15
Cn1c(=O)n(C)c2cc(C(N)=O)ccc21	-10.3
CCCNC(=O)c1ccc2c(c1)S(=O)(=O)c1ccccc1C2=O	-10.9
COC(=O)c1ccc(CN2CCN(Cc3ccc(C(=O)OC)o3)CC2)o1	19.1
CCOC(=O)/C(C#N)=N/Nc1ccc(S(=O)(=O)Nc2cc(OC)nc(OC)n2)cc1	-13.1
CN(CC1CCOCC1)C(=O)c1ccc2nc(Cc3cccc(Cl)c3)oc2c1	-69.7

SMILES	hERG current change (%, negative = inhibition) at 10uM [%]
C=CCNC(=O)O/N=C/c1csc([N+](=O)[O-])c1	13.3
Cn1c(-c2ccc(Br)o2)nc2cc(Br)ccc21	17.9
COc1ccc(C)cc1N(CC(=O)NCCN1CCOCC1)S(=O)(=O)c1ccccc1	-6.92
COCCCNC(=O)CCc1c(C)c2cc3c(C)coc3cc2oc1=O	-5.79
COc1ccccc1CNC(=O)[C@H](C)NC(=O)C1CCN(C(=O)[C@@H](N)CCSC)CC1	8.03
O=C(CC1C(=O)NCCN1Cc1cccc(Oc2ccccc2)c1)NCCc1cscn1 (stereo not shown)	8.01
Cc1ccc(Cn2c(C3CCCN3c3nc(C)cs3)nc3cc(C(F)(F)F)ccc32)cc1 (stereo not shown)	0.159
CCCCOc1ccc(CN(CCO)CCO)cc1[N+](=O)[O-].Cl	-22
Cc1ccc2c(c1)N(CCC(=O)NC(C)C)C(=O)CO2	13.5
CCOC(=O)/C(C#N)=N\Nc1cc(Cl)ccc1OC	12.6
Cl.O=C(CCN1CCN(CCO)CC1)Nc1ccc(C2CCCC2)cc1	-43
Cc1c(C(=O)NCc2cccnc2)sc2nc(-c3ccccc3)cn12	-55.2
CC(=O)N/C(=C/c1ccc(OS(=O)(=O)c2ccc(C)cc2)cc1)C(=O)NCCCO	-2.69
Fc1ccc(-c2ccnc3nc(N4CCN(c5ccccc5)CC4)nn23)cc1	-26.5
Cc1ccc(C(=O)Nc2cccc(C(=O)N/N=C/c3ccc(F)cc3)c2)cc1	10.5
O=C(CCCn1c(=S)[nH]c2cc3c(cc2c1=O)OCO3)N1CCN(c2ccccc2F)CC1	20.6
COc1ccc(C(=O)[C@H]2[C@H]3C(=O)N(c4ccc(OC(C)=O)cc4)C(=O)[C@H]3C3C=CC=NN32)cc1 (stereo partly shown)	9.81
C=CCN1C(=O)CS/C1=N/c1nccs1	3.51
Cc1cc(C(=O)Nc2cccc(O)c2)co1	15.4
O=C(CNC(=O)c1cccnc1)N/N=C/c1cccnc1	8.4
Cc1nnc(Sc2cc(C(=O)NCCCOC(C)C)c3ccccc3n2)s1	-9.18
Cn1cc(CC(=O)N2CCN(c3ccccc3F)CC2)c2ccccc21	-9.66
Cc1ccccc1C(=O)NNC(=O)Cc1ccccc1	0.0513

SMILES	hERG current change (%, negative = inhibition) at 10uM [%]
C[C@@H](NC(=O)c1coc(=O)c(Br)c1)c1ccccc1	3.26
COc1ccc(C=O)cc1CN1CCCN(Cc2ccc(Cl)cc2)S1(=O)=O	8.59
NS(=O)(=O)c1ccc(CCNC(=O)CCCOc2ccccc2)cc1	0.619
CN(C(=O)c1ccncc1)C1CCCN(Cc2ccccc2F)C1 (stereo not shown)	-15.9
COc1ccc(NC(=O)Nc2ccc3c(c2)N(C)C(=O)CS3)cc1OC	-1.7
COc1cccc(NC(=O)c2cc(S(=O)(=O)N3CCc4ccccc43)cn2C)c1	15.9
Nc1c(C(=O)CSc2nnc(-c3ccccc3)o2)c(=O)[nH]c(=O)n1C1CC1	12.2
O=C(COc1ccccc1)OC(C(=O)c1ccccc1)c1ccccc1 (stereo not shown)	16.5
CCOC(=O)c1c(C)[nH]c(C(=O)COC(=O)c2oc3ccccc3c2C)c1C	2.49
O=[N+]([O-])c1cccc(C(=Nc2ccccc2Cl)NO)c1	-21
Cc1cc(C)c2ccc(NN)nc2c1O	2.07
Cc1ccc(C(=O)Cn2cnc3ccccc3c2=O)cc1	5.47
Cc1ccc(-c2cnc(NC(=O)CCC(=O)N(C)Cc3ccccc3)n2C)cc1	-27.5
COc1ccc(C2(O)CCN(CCCCOc3ccccc3)CC2)cc1	-70.6
COc1ccccc1C(=O)N/N=C/c1ccc2c(c1)OCO2	8.62
O=c1nc(N/N=C/c2c[nH]c3ccccc23)cn[nH]1	32
O=C(N1CCOCC1)N1CCN(Cc2ccccc2)CC1	1.57
Oc1ccc(/C=N/N=C(c2ccccc2)c2ccccc2)c(O)c1O	8.49
Cc1ccc(-n2ncc3c2CC(C)(C)CC3NC(=O)C2CCOCC2)cc1 (stereo not shown)	-37.5
Nn1c(SCCOc2ccc(Cl)cc2)nnc1-c1cccnc1	70.2
CN(c1ccccc1N(C)S(=O)(=O)c1ccccc1)S(=O)(=O)c1ccccc1	14.1
O=C(c1ccc2c(c1)OCO2)N1CCN(S(=O)(=O)N2CCCCC2)CC1	-5.57
